Results as given in PubChem BioAssay AID596 (National Center for Advancing Translational Sciences (NCATS), 2007).
Where “and” joins values, the source holds several entries; their conditions need not be identical. Identical values can stand only once. The whole screen tested about 71,000 compounds, of which about 1,400 (2%) were called active. Inconclusive means that the source gave no clear call. Such entries were picked first, then a sample of the others. The call rests on the fitted dose curve; in most records, active means well fitted curve in the direction sought with a large enough effect; inconclusive means small, poorly fitted or top-dose-only effect; inactive means no such curve, though single readings can be large or run the other way. A potency beside an inconclusive call is a rough fit, not a confirmed value.

Target: Microtubule-associated protein tau (Homo sapiens) (UniProt P10636)
Chain of UniProt P10636 (P10636 whole entry, looked up): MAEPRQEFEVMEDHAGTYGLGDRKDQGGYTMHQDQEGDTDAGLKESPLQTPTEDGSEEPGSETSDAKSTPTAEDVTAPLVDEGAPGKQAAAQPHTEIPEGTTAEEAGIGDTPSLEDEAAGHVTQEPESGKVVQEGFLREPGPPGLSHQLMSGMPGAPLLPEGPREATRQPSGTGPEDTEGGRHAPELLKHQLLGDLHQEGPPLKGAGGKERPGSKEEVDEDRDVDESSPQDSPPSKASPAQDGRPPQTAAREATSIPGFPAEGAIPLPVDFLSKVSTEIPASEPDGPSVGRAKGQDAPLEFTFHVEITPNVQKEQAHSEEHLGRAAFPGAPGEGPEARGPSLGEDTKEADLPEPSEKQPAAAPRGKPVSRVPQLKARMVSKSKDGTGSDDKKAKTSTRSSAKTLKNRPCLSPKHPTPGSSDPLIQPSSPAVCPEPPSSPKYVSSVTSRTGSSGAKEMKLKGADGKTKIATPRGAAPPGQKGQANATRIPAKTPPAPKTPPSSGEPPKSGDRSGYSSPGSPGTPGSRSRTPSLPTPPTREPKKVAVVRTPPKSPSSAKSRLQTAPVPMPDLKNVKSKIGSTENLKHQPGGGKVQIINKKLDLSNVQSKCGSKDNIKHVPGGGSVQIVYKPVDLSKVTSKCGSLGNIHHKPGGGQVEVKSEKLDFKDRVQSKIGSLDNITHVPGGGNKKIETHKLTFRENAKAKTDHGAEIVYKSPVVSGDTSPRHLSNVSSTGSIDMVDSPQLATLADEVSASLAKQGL
Assay: qHTS Assay for Tau Filament Binding
Conditions: recombinant tau filaments, thioflavin S fluorescence, 15 h, filaments grown with octadecylsulfate alongside compound; series mostly up to 57.1 µM; activity change, negative = inhibition: at the top concentration
Summary of the method: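 Thioflavine S fluorescence (ex 450, em 510 nm) reports filaments formed from 1 uM human tau plus 30 uM ODS over 15 h at 37 C (10 mM HEPES pH 7.4, 100 mM NaCl, 5 mM DTT); compounds displacing dye or blocking filaments lower signal.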
On the % scale 0 is the no-effect control and ±100 the full control effect; potency means the concentration at half of the fitted maximal effect.

Structure (SMILES) | activity change, negative = inhibition | Potency
Cc1ccc(Cl)cc1N | inactive: 8.2% | –
N=c1c(S(=O)(=O)c2ccccc2)cc2c(=O)n3ccccc3nc2n1CC1CCCO1 (configuration not stated) | inactive: 17.7% | –
CC(N)=NCCC[C@H](N)C(=O)O | – | inconclusive: 39.8 µM [decreasing]
O=C1CCCc2c1[nH]c1ccccc21 | – | inconclusive: 31.6 µM [decreasing]
COc1ccccc1N1CCN(C[C@@H](O)COc2cccc3ccccc23)CC1 | – | inconclusive: 39.8 µM [decreasing]
COc1ccc(-c2csc(Cc3nnc4n3CCCCC4)n2)cc1OC | inactive: 2.5% | –
COc1ccc2[nH]cc(CCNc3cc(-c4ccc5c(c4)OCO5)ncn3)c2c1 | – | inconclusive: 31.6 µM [decreasing]
C/C(=N/NS(=O)(=O)c1ccc(C)cc1)P(=O)(O)O | inactive: 10.1% [at 11.4 µM] | –
O=C(c1ccco1)N1CCC2(CC1)CN(c1ccccc1)C2 | – | inconclusive: 39.8 µM [decreasing]
CC(C)(C)CC(C)(C)c1cc(O)c(O)c(CN2CCCCC2)c1 | – | inconclusive: 6.31 µM [decreasing]
C/C(=N\NC(N)=S)c1ccc[nH]1 | inactive: 8.3% [at 11.4 µM] | –
CCCCCCCCCCCC1=C(O)C(=O)C=C(O)C1=O | – | active: 15.8 µM and active: 3.16 µM
O=C(Nc1ccc(N2CCCCC2)cc1)c1cccnc1 | – | inconclusive: 25.1 µM [decreasing]
Cc1ccc(C2c3c(oc4cc(C)c(C)cc4c3=O)C(=O)N2CCCN2CCOCC2)cc1 (configuration not stated) | – | inconclusive: 12.6 µM [decreasing]
O=C(CSc1nnc(COc2ccccc2)o1)N1CCN(c2ccccc2)CC1 | – | inconclusive: 31.6 µM [decreasing]
CCCCCCCCCCCCCCCC(=O)C(F)(F)F | – | inconclusive: 39.8 µM [decreasing]
COc1cc2c(cc1NCc1ccccn1)oc1ccccc12 | – | active: 31.6 µM
CCOC(=O)c1ccc2[nH]c3c(c2c1)CCCCC3=O | – | inconclusive: 31.6 µM [decreasing]
CCCN=C(N)NCCC[C@H](N)C(=O)O | – | inconclusive: 39.8 µM [decreasing]
N[C@H](CCC(=O)NCC(=O)O)C(=O)O | – | inconclusive: 31.6 µM [decreasing]
COc1ccc(OCC(=O)Nc2ccc(S(=O)(=O)N3CCCCCC3)cc2)cc1 | inactive: 32.5% | –

Structure (SMILES) | activity change, negative = inhibition | Potency
CC1(C)CC(Nc2ccc(Nc3ccccc3)cc2)CC(C)(C)N1 | – | active: 1.58 µM
Cc1oc(/N=C/c2ccc(Cl)cc2)c(C#N)c1C | – | inconclusive: 15.8 µM [decreasing]
CCOc1ccccc1O[C@@H](c1ccccc1)[C@@H]1CNCCO1 | – | active: 31.6 µM
CC(=O)Nc1ccc(NC(=O)c2cc(C)nn2-c2ccccc2)cc1 | inactive: -5.8% | –
O=C(Nc1ccc(N2CCOCC2)cc1)Nc1ccc2nc(-c3ccco3)c(-c3ccco3)nc2c1 | – | active: 0.794 µM
Cn1c(CCNC(=O)c2ccco2)nc2cc(NS(=O)(=O)c3ccc(Cl)cc3)ccc21 | inactive: 5% | –
Cc1nc(NCc2ccco2)c2oc3ccccc3c2n1 | inactive: 1.9% | –
CN1C=CC=C/C1=C1\SC(=S)N(C2CCCCC2)C1=O | – | active: 3.98 µM
COc1cc2c(C#N)c(N3CCc4ccccc4C3)nc(N)c2c(N)n1 | – | inconclusive: 39.8 µM [decreasing]
C1=CC2c3ccccc3NC(c3ccncc3)C2C1 (configuration not stated) | – | active: 7.94 µM
C=CCn1c(NCc2ccccc2)nc2ccccc21 | inactive: -11.9% | –
CC(C)NC[C@H](O)COc1cccc2[nH]ccc12 | – | inconclusive: 39.8 µM [decreasing]
O=C1CNC(=O)/C1=C\N1CCN(C(c2ccccc2)c2ccccc2)CC1 | – | inconclusive: 39.8 µM [decreasing]
CCN(CC)c1ccc(NC(=O)c2ccccc2F)cc1 | – | inconclusive: 20 µM [decreasing]
CC(C)CCNC(=O)c1cnn2c(C(F)(F)F)cc(-c3ccco3)nc12 | – | active: 15.8 µM
C=CCN(CC=C)S(=O)(=O)c1ccc2nsnc2c1 | – | inconclusive: 31.6 µM [decreasing]
COCCn1c(=O)c(-c2cccc(C#N)c2)nc2cnc(N(C)C)nc21 | inactive: 462% | –
COc1ccc(Oc2ncc3nc(-c4cccs4)c(=O)n(Cc4cccc(OC)c4)c3n2)cc1 | inactive: 1.8% | –
COc1ccc(-c2cc(-c3ccccc3O)[nH]n2)cc1OC | inactive: 89.6% | –
Cc1cc(C(=O)CSc2nnc(N)s2)c(C)n1CCc1ccc(Cl)cc1 | inactive: 237% | –
COc1ccc(Cn2c(C)nc3oc4cc(OC)ccc4c(=O)c3c2=O)cc1 | – | inconclusive: 25.1 µM [decreasing]
